The other results are listed elsewhere or left out. Binding of human transcription factors and regulators to the viral nucleoprotein by AlphaScreen, crude cell-free proteins, amounts not normalised, one pass. Fold of the Venus control; higher = more signal. No active / inactive call. Single-pass screen; sequences are the whole Swiss-Prot entries looked up by name.
B1: TRIM40, Q6P9F5 (protein)
chain: MIPLQKDNQEEGVCPICQESLKEAVSTNCGHLFCRVCLTQHVEKASASGVFCCPLCRKPCSEEVLGTGYICPNHQKRVCRFCEESRLLLCVECLVSPEHMSHHELTIENALSHYKERLNRRSRKLRKDIAELQRLKAQQEKKLQALQFQVDHGNHRLEAGPESQHQTREQLGALPQQWLGQLEHMPAEAARILDISRAVTQLRSLVIDLERTAKELDTNTLKNAGDLLNRSAPQKLEVIYPQLEKGVSELLLQPPQKL
B2: ZMYM5, Q9UJ78 (protein)
chain: MEKCSVGGLELTEQTPALLGNMAMATSLMDIGDSFGHPACPLVSRSRNSPVEDDDDDDDVVFIESIQPPSISAPAIADQRNFIFASSKNEKPQGNYSVIPPSSRDLASQKGNISETIVIDDEEDIETNGGAEKKSSCFIEWGLPGTKNKTNDLDFSTSSLSRSKTKTGVRPFNPGRMNVAGDLFQNGEFATHHSPDSWISQSASFPSNQKQPGVDSLSPVALLRKQNFQPTAQQQLTKPAKITCANCKKPLQKGQTAYQRKGSAHLFCSTTCLSSFSHKRTQNTRSIICKKDASTKKANVILPVESSKSFQEFYSTSCLSPCENNWNLKKGVFNKSRCTICSKLAEIRHEVSVNNVTHKLCSNHCFNKYRLANGLIMNCCEHCGEYMPSKSTGNNILVIGGQQKRFCCQSCINEYKQMMETKSKKLTASENRKRNAFREENEKQLYGSSNTLLKKIEGIPEKKEKTSQLQLSVECGTDTLLIQENVNLPPSSTSTIADTFQEQLEEKNFEDSIVPVVLSADPGTWPRILNIKQRDTLVENVPPQVRNFNFPKDNTGRKFSETYYTRILPNGEKTTRSWLLYSTSKDSVFCLYCKLFGEGKNQLKNENGCKDWQHLSHILSKHEESEMHVNNSVKYSKLKSDLKKNKAIDAAEHRLYENEKNDGVLLLYT
B3: AEBP1, Q8IUX7 (protein)
chain: MAAVRGAPLLSCLLALLALCPGGRPQTVLTDDEIEEFLEGFLSELEPEPREDDVEAPPPPEPTPRVRKAQAGGKPGKRPGTAAEVPPEKTKDKGKKGKKDKGPKVPKESLEGSPRPPKKGKEKPPKATKKPKEKPPKATKKPKEKPPKATKKPKEKPPKATKKPPSGKRPPILAPSETLEWPLPPPPSPGPEELPQEGGAPLSNNWQNPGEETHVEAREHQPEPEEETEQPTLDYNDQIEREDYEDFEYIRRQKQPRPPPSRRRRPERVWPEPPEEKAPAPAPEERIEPPVKPLLPPLPPDYGDGYVIPNYDDMDYYFGPPPPQKPDAERQTDEEKEELKKPKKEDSSPKEETDKWAVEKGKDHKEPRKGEELEEEWTPTEKVKCPPIGMESHRIEDNQIRASSMLRHGLGAQRGRLNMQTGATEDDYYDGAWCAEDDARTQWIEVDTRRTTRFTGVITQGRDSSIHDDFVTTFFVGFSNDSQTWVMYTNGYEEMTFHGNVDKDTPVLSELPEPVVARFIRIYPLTWNGSLCMRLEVLGCSVAPVYSYYAQNEVVATDDLDFRHHSYKDMRQLMKVVNEECPTITRTYSLGKSSRGLKIYAMEISDNPGEHELGEPEFRYTAGIHGNEVLGRELLLLLMQYLCREYRDGNPRVRSLVQDTRIHLVPSLNPDGYEVAAQMGSEFGNWALGLWTEEGFDIFEDFPDLNSVLWGAEERKWVPYRVPNNNLPIPERYLSPDATVSTEVRAIIAWMEKNPFVLGANLNGGERLVSYPYDMARTPTQEQLLAAAMAAARGEDEDEVSEAQETPDHAIFRWLAISFASAHLTLTEPYRGGCQAQDYTGGMGIVNGAKWNPRTGTINDFSYLHTNCLELSFYLGCDKFPHESELPREWENNKEALLTFMEQVHRGIKGVVTDEQGIPIANATISVSGINHGVKTASGGDYWRILNPGEYRVTAHAEGYTPSAKTCNVDYDIGATQCNFILARSNWKRIREIMAMNGNRPIPHIDPSRPMTPQQRRLQQRRLQHRLRLRAQMRLRRLNATTTLGPHTVPPTLPPAPATTLSTTIEPWGLIPPTTAGWEESETETYTEVVTEFGTEVEPEFGTKVEPEFETQLEPEFETQLEPEFEEEEEEEKEEEIATGQAFPFTTVETYTVNFGDF
B4: NOD1, Q9Y239 (protein)
chain: MEEQGHSEMEIIPSESHPHIQLLKSNRELLVTHIRNTQCLVDNLLKNDYFSAEDAEIVCACPTQPDKVRKILDLVQSKGEEVSEFFLYLLQQLADAYVDLRPWLLEIGFSPSLLTQSKVVVNTDPVSRYTQQLRHHLGRDSKFVLCYAQKEELLLEEIYMDTIMELVGFSNESLGSLNSLACLLDHTTGILNEQGETIFILGDAGVGKSMLLQRLQSLWATGRLDAGVKFFFHFRCRMFSCFKESDRLCLQDLLFKHYCYPERDPEEVFAFLLRFPHVALFTFDGLDELHSDLDLSRVPDSSCPWEPAHPLVLLANLLSGKLLKGASKLLTARTGIEVPRQFLRKKVLLRGFSPSHLRAYARRMFPERALQDRLLSQLEANPNLCSLCSVPLFCWIIFRCFQHFRAAFEGSPQLPDCTMTLTDVFLLVTEVHLNRMQPSSLVQRNTRSPVETLHAGRDTLCSLGQVAHRGMEKSLFVFTQEEVQASGLQERDMQLGFLRALPELGPGGDQQSYEFFHLTLQAFFTAFFLVLDDRVGTQELLRFFQEWMPPAGAATTSCYPPFLPFQCLQGSGPAREDLFKNKDHFQFTNLFLCGLLSKAKQKLLRHLVPAAALRRKRKALWAHLFSSLRGYLKSLPRVQVESFNQVQAMPTFIWMLRCIYETQSQKVGQLAARGICANYLKLTYCNACSADCSALSFVLHHFPKRLALDLDNNNLNDYGVRELQPCFSRLTVLRLSVNQITDGGVKVLSEELTKYKIVTYLGLYNNQITDVGARYVTKILDECKGLTHLKLGKNKITSEGGKYLALAVKNSKSISEVGMWGNQVGDEGAKAFAEALRNHPSLTTLSLASNGISTEGGKSLARALQQNTSLEILWLTQNELNDEVAESLAEMLKVNQTLKHLWLIQNQITAKGTAQLADALQSNTGITEICLNGNLIKPEEAKVYEDEKRIICF
B5: TRAF3, Q13114 (protein)
chain: MESSKKMDSPGALQTNPPLKLHTDRSAGTPVFVPEQGGYKEKFVKTVEDKYKCEKCHLVLCSPKQTECGHRFCESCMAALLSSSSPKCTACQESIVKDKVFKDNCCKREILALQIYCRNESRGCAEQLMLGHLLVHLKNDCHFEELPCVRPDCKEKVLRKDLRDHVEKACKYREATCSHCKSQVPMIALQKHEDTDCPCVVVSCPHKCSVQTLLRSELSAHLSECVNAPSTCSFKRYGCVFQGTNQQIKAHEASSAVQHVNLLKEWSNSLEKKVSLLQNESVEKNKSIQSLHNQICSFEIEIERQKEMLRNNESKILHLQRVIDSQAEKLKELDKEIRPFRQNWEEADSMKSSVESLQNRVTELESVDKSAGQVARNTGLLESQLSRHDQMLSVHDIRLADMDLRFQVLETASYNGVLIWKIRDYKRRKQEAVMGKTLSLYSQPFYTGYFGYKMCARVYLNGDGMGKGTHLSLFFVIMRGEYDALLPWPFKQKVTLMLMDQGSSRRHLGDAFKPDPNSSSFKKPTGEMNIASGCPVFVAQTVLENGTYIKDDTIFIKVIVDTSDLPDP

Target: nucleoprotein N of Crimean-Congo hemorrhagic fever virus
Test: AlphaScreen luminescence signal relative to Venus negative control (fold); higher = stronger binding to CCHFV N
Procedure: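 AlphaScreen binding of cell-free made, FLAG-GST-tagged human transcription factors and regulators (crude translation products) to biotinylated N protein; signal as fold of the FLAG-GST-Venus control. One pass.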

| Binder | AlphaScreen luminescence signal |
| --- | --- |
| B1 | 1.12 |
| B2 | 1.35 |
| B3 | 4.93 |
| B4 | 2.33 |
| B5 | 1.86 |
